Screen size: about 5,400 compounds; about 190 (3.5%) showed an effect of 50% or more. This is one part of the list. Residues, ends and D or L forms follow the SMILES beside them.

The test system of the assay is Vero-E6. Nature of the assay: primary screen, phospholipidosis by LipidTOX staining; higher = more effect of the substance. Particulars: 10 µM. In a few lines: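 Drug-induced phospholipidosis detected with HCS LipidTOX Red reagent in Vero-E6 cells. Compounds tested at 10 μM, with amiodarone (10 μM) as positive control and DMSO (0.1 v/v %) as vehicle.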
`OC[C@H]1O[C@@H](c2ccc(F)c(Cc3cc4ccccc4s3)c2)[C@H](O)[C@@H](O)[C@@H]1O`: the result_ITMP stood at 0.18%. Turning to `O=C(OC(C(F)(F)F)C(F)(F)F)N1CCC(C(O)(c2ccc3c(c2)OCO3)c2ccc3c(c2)OCO3)CC1`, the result_ITMP is recorded as -0.06%. For `NC(N)=N/C(N)=N/CCc1ccccc1` the value was -1.11%; for `C[C@@H]1NC(=O)NC1=O`, -6.33%; for `Cc1csc(S(=O)(=O)N(CC(C)C)c2cc3c(cc2OCc2ccc(C(=O)O)cc2)CCC3)n1`, -7.13%.

For `CCCCCC(O)CCCC(=O)[O-]` (centres unmarked), the result_ITMP is -2.69%. The figure for `Nc1ncnc(Nc2ccc(Cl)cc2)n1` is -1.52%; for `CC(C)(C)c1ccc(C(=O)Nc2cn3cc(-n4ccnc4)ccc3n2)cc1` it is 1.75%; for `Nc1nnc2[nH]c3ccccc3nc1-2` it is -7.77%. The figure for `CCCCCCCCCCCCCCCC(=O)NCCO` is -0.94%; for `CCCCCCCCCCCCCCCC(=O)OC(CC(=O)O)C[N+](C)(C)C` (centres unmarked) it is 0.17%; for `N[C@H](Cc1c[nH]cn1)C(=O)O` it is 1.48%. The figure for `Cc1sc2c(c1C)C(c1ccc(Cl)cc1)=N[C@@H](CC(=O)OC(C)(C)C)c1nnc(C)n1-2` is 13.2%; for `Cc1c(Cc2ccc3ccccc3n2)c2cc(F)ccc2n1CC(=O)O` it is -5.37%. On to `CO[C@@H](C(=O)N1Cc2[nH]nc(NC(=O)c3ccc(N4CCN(C)CC4)cc3)c2C1)c1ccccc1`, for which the result_ITMP amounted to 6.88%. Take `CC(=O)[C@@]12OC(C)(c3ccccc3)O[C@@H]1C[C@H]1[C@@H]3CCC4=CC(=O)CC[C@]4(C)[C@H]3CC[C@@]12C` (some centres unmarked): the result_ITMP is given as -0.91%. The figure for `Cc1c(C(=O)NCCCO)cnn1-c1nc(-c2cccc(C(F)(F)F)c2)cs1` is -0.84%; for `Cc1cccc(N2CC(CO)OC2=O)c1` (centres unmarked) it is -0.17%; for `C=CC(=O)N1CCC(Oc2cc3c(Nc4ccc(Cl)c(Cl)c4F)ncnc3cc2OC)CC1` it is 35.1%.

In the case of `CC(=O)NC[C@H]1CN(c2ccc(N3CCN(C(=O)CO)CC3)c(F)c2)C(=O)O1`, the result_ITMP is reported as -1.38%.

In the case of `CC(C)c1cccc2c1OC(C(C)C)C(=S)N2CC(=O)O` (centres unmarked), the result_ITMP was -9.41%. The figure for `c1ccc2sc(SNC3CCCCC3)nc2c1` is -0.51%; for `C[C@H](NC(=O)CNC(=O)c1cccc(Cl)c1)c1ccccc1` it is -1.81%.

`Cc1cc(Nc2ccc(NC(=O)c3ccc(Nc4ccnc5ccccc45)cc3)cc2)nc(N)n1`: the result_ITMP is recorded as 13.5%. Turning to `CCC(Cc1c(I)cc(I)c(N)c1I)C(=O)O` (centres unmarked), the result_ITMP was -2.69%. For `CCC(NC(C)C)C(O)c1ccc(O)c(O)c1` (centres unmarked) the value was 19.2%; for `C/C(=N\NC(=O)C(NC(=O)c1ccccc1)c1n[nH]c(=O)c2ccccc12)c1cccc(Br)c1` (centres unmarked), -0.51%. The figure for `COc1ccc(OC)c(C(O)C(C)N)c1` (centres unmarked) is -0.82%; for `COC(=O)c1cc2c(C(F)(F)F)cc(-c3ccccc3)cc2n1O` it is -5.6%. The figure for `CNC(CC(=O)O)C(=O)O` (centres unmarked) is 0.5%. In the case of `NCC(=O)N[C@@H](CCC(N)=O)C(=O)O` (H-Gly-Gln-OH), the result_ITMP was -2.88%.

For the compound `C[C@H](NC(=O)Cc1cc(F)cc(F)c1)C(=O)N[C@H](C(=O)OC(C)(C)C)c1ccccc1`, the result_ITMP was -3.76%. Regarding `Ic1cncc(OC[C@@H]2CCN2)c1`, the result_ITMP amounted to 0.83%. For `CC(O)CC(=O)O` (centres unmarked) the value was 2.83%; for `CC(C)N(CCCNC(=O)Nc1ccc(C(C)(C)C)cc1)C[C@H]1O[C@@H](n2ccc3c(N)ncnc32)[C@H](O)[C@@H]1O`, -10.6%; for `CC(=O)NC1N=C(c2ccccc2)c2ccccc2NC1=O` (centres unmarked), 1.13%. The figure for `C=C[C@@]1(C)CC(=O)[C@]2(O)[C@@]3(C)[C@@H](O)CCC(C)(C)[C@@H]3[C@H](O)[C@H](OC(C)=O)[C@@]2(C)O1` is -2.23%; for `CN1CCN(C2=Cc3ccccc3Oc3ccc(Cl)cc32)CC1` it is 61.3%. For `C[C@]12CC[C@@H]3c4ccc(O)cc4CC[C@H]3[C@@H]1CC[C@@H]2OC(=O)CCC1CCCC1` the value was -1.02%; for `C[C@H](NC(=O)[C@@H](O)c1cc(F)cc(F)c1)C(=O)N[C@@H]1C(=O)N(C)c2ccccc2-c2ccccc21`, -2.55%; for `O=C(O)CCCCN(CCc1ccccc1OCc1ccc(CCc2ccccc2)cc1)Cc1ccc(C(=O)O)cc1`, 0.2%. For the compound `CO[C@@]1(NC(=O)CSCC#N)C(=O)N2C(C(=O)O)=C(CSc3nnnn3C)CS[C@@H]21`, the result_ITMP is -3.31%. The figure for `CCOC(=O)c1cc2ccc(O)cc2oc1=O` is -3.11%; for `COc1ccc2[nH]c(I)c(CCNC(C)=O)c2c1` it is -1.65%; for `CCOc1cncc(/C=C/CCNC)c1` it is -0.57%. For `O=c1cc(N2CCOCC2)oc2c1ccc1ccccc12` the value was 0.24%; for `N[C@H](CO)C(=O)O`, 0.12%; for `CCn1c(-c2nonc2N)nc2cncc(CNC3CCNCC3)c21`, 2.13%. In the case of `O=S(=O)(c1cccc2cnccc12)N1CCNCC1`, the result_ITMP was 0.47%. The figure for `C[C@H]1O[C@@H](O[C@H]2[C@@H](O)C[C@H](O[C@H]3[C@@H](O)C[C@H](O[C@H]4CC[C@]5(C)C6C[C@@H](O)[C@]7(C)[C@@H](C8=CC(=O)OC8)CC[C@]7(O)C6CC[C@@H]5C4)O[C@@H]3C)O[C@@H]2C)C[C@H](O)[C@@H]1O` (some centres unmarked) is -8.53%.

Regarding `CC(=O)N(O)CCCCCNC(=O)CCC(=O)N(O)CCCCCNC(=O)CCC(=O)N(O)CCCCCN`, the result_ITMP is reported as -0.4%. For the compound `O=C1Cc2cc(CCN3CCN(c4nsc5ccccc45)CC3)c(Cl)cc2N1`, the result_ITMP amounted to 0.61%.

`CC(C)/N=c1\cc2n(-c3ccc(Cl)cc3)c3ccccc3nc-2cc1Nc1ccc(Cl)cc1`: the result_ITMP worked out at 7.06%.

`C[N+](C)(C)CCCCCNCC12CC3CC(CC(C3)C1)C2`: the result_ITMP is 0.34%. For `CCCC(=O)N1CCCN(c2nc(N)c3cc(OC)c(OC)cc3n2)CC1` the value was 0.19%.

Turning to `CCN[C@H]1C[C@H](C)S(=O)(=O)c2sc(S(N)(=O)=O)cc21`, the result_ITMP was 2.72%. With `O=C(O)CCCCCCCCCCCCCCc1ccc(I)cc1`, the result_ITMP stood at 0.54%.

For `CCC(CC)O[C@@H]1C=C(C(=O)O)C[C@H](N)[C@H]1NC(C)=O`, the result_ITMP is given as -2.44%. For `O=c1cc(-c2ccc(O)c(O)c2)oc2cc(O)cc(O)c12` the value was -5.81%; for `CC(=O)Nc1ccc(NC(=S)NC(=O)c2ccc(C(C)(C)C)cc2)cc1`, 2.55%; for `CCOc1cc(C(=O)N2CCC(N3CCN(C)CC3)CC2)ccc1Nc1ncc2c(n1)N(C1CCCC1)c1ccccc1C(=O)N2C`, 14.1%. For `O=C(NOCCO)c1ccc2cncn2c1Nc1ccc(I)cc1F`, the result_ITMP came to 2.64%. For `CC(C)(CC(=O)N1CCCC1)NCC(=O)N1C[C@@H](F)C[C@H]1C#N` the value was -0.16%; for `C[C@]12CC[C@@H]3c4ccc(OC(=O)N(CCCl)CCCl)cc4CC[C@H]3[C@@H]1CC[C@@H]2OP(=O)([O-])[O-]`, -4.08%. For `COC(=O)Nc1ccc(-c2nc(N3CCOCC3)c3cnn(C4CCN(Cc5cccnc5)CC4)c3n2)cc1` the value was 24.2%. `CC(C)(C(=O)c1cccnc1)c1cccnc1`: the result_ITMP was -0.75%. For `Nc1ncn([C@H]2C[C@H](O)[C@@H](CO)O2)c(=O)n1`, the result_ITMP is listed as -9.37%. For `COc1ccc2nc3ccc(Cl)cc3c(SCCCN)c2c1` the value was -9.55%. `CN1CC(=O)NC1=N`: the result_ITMP is -2.8%. The figure for `Cn1c(COP(=O)(NCCBr)NCCBr)cnc1[N+](=O)[O-]` is -1.53%; for `O=C(Cc1ccc(-c2ccc(OCCN3CCOCC3)cc2)cn1)NCc1ccccc1` it is 15.5%; for `COCCN1CCC(C(=O)NO)(S(=O)(=O)c2ccc(Oc3ccc(OC(F)(F)F)cc3)cc2)CC1` it is -0.66%. `N[C@@H]1CCCCN(c2c(F)cc3c(=O)c(C(=O)O)cn(C4CC4)c3c2Cl)C1`: the result_ITMP is -1.6%.

As to `O=[N+]([O-])c1ccc2c(c1)S(=O)(=O)C=C2`, the result_ITMP was -15.1%. The figure for `C/C(O)=C(\C#N)C(=O)Nc1cc(Br)ccc1Br` is -1.16%; for `CN(C)CCC(O)(c1ccccc1)c1ccccc1Cl` (centres unmarked) it is 0.93%; for `CSc1ccccc1OCC(O)CNC(C)C` (centres unmarked) it is 0.09%.

For the compound `CC[C@H]1OC(=O)[C@H](C)[C@@H](O[C@H]2C[C@@](C)(OC)[C@@H](O)[C@H](C)O2)[C@H](C)[C@@H](O[C@@H]2O[C@H](C)C[C@H](N(C)C)[C@H]2O)[C@](C)(OC)C[C@@H](C)C(=O)[C@H](C)[C@@H](O)[C@]1(C)O`, the result_ITMP is reported as -11.1%. The figure for `CCOc1ccccc1OCC1CNCCO1` (centres unmarked) is -0.95%; for `NC(=O)Cc1cccc(C(=O)c2ccccc2)c1N` it is -4.4%; for `C[C@H]1COC2=C1C(=O)C(=O)c1c2ccc2c1CCCC2(C)C` it is -1.74%. As for `CN(C)CC[C@H](CSc1ccccc1)Nc1ccc(S(=O)(=O)NC(=O)c2ccc(N3CCN(Cc4ccccc4-c4ccc(Cl)cc4)CC3)cc2)cc1[N+](=O)[O-]`, the result_ITMP is recorded as -6.66%. Regarding `CCCCC1=NC2(CCCC2)C(=O)N1Cc1ccc(-c2ccccc2-c2nnn[nH]2)cc1`, the result_ITMP was -11.8%. The figure for `CC1=CC(=O)[N-]S(=O)(=O)O1` is -5.65%; for `CCCCOC(=O)c1ccc(N)cc1` it is -3.08%; for `O=C(Nc1ccc(C(=O)O)c(O)c1)c1ccccc1` it is 3.46%.

Regarding `COc1[nH]c2ccc(F)cc2c1C(=O)OCC1CCN(CCNS(C)(=O)=O)CC1`, the result_ITMP is given as -0.84%.

Consider `CCN(Cc1ccc(Cl)nc1)/C(=C/[N+](=O)[O-])NC`, for which the result_ITMP is reported as 0.71%.

Turning to `O=C(Nc1cc(C(F)(F)F)ccc1O)Nc1cc(C(F)(F)F)ccc1O`, the result_ITMP was 2.26%. For `Cc1ccccc1-n1c(Cn2ncc3c(N)ncnc32)nc2cccc(C)c2c1=O` the value was 0.34%; for `CSC[C@H](N)C(=O)O`, -1.63%. The figure for `CO/N=C1\C[C@@H](C(=O)NC[C@@H](O)c2ccccc2)N(C(=O)c2ccc(-c3ccccc3C)cc2)C1` is 0.8%.

Source of the values: PMC13083723 (Patterns, 2026).
